Results: PubChem BioAssay AID1508624 (National Center for Advancing Translational Sciences (NCATS), 2021)
In all, about 48,000 compounds went through this assay and about 120 (0.25%) were called active. About 4% were inconclusive and are not listed. Calls follow the shape of the dose curve; as a rule, active = well fitted activation curve with a large enough effect; inconclusive = small, poorly fitted or top-dose-only effect, or another doubt; inactive = no such curve, though single readings can be large or run the other way. This is one part of the list.

Assay: Primary qHTS for Identification of Small Molecule Activators of Huntingtin-Antisense Promoter Activity; also: nearly all actives have a fitted effect of over 55% in size
Settings: HEK293 HTT-AS promoter firefly luciferase reporter, 24 h; series mostly up to 57.5 µM; activity change, positive = activation: at the top concentration
Method in brief: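 HEK293 cells carrying firefly luciferase reporters were seeded at 2,500 per well in Opti-MEM and cultured for 24 h. They were then treated with compounds at up to 57.5 uM final for 24 h at 37 degrees C before Dual-Glo luminescence readout.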

Activity change, positive = activation, inactive:
COc1ccc(OCCn2cc(C(=O)C3CCCCC3)c3ccccc32)cc1 -21.8%
O=C(c1ccc2c(c1)CCN2S(=O)(=O)c1ccccc1)N1CCN(c2ccc(F)cc2)CC1 -10.4%
COc1cccc(N2CCN(C(=O)c3cnn(C(C)(C)C)c3C3CCN(C(=O)OC(C)(C)C)CC3)CC2)c1 -16.2%
O=C(NCc1ccc(Cl)cc1)C(=O)Nc1ccc(Br)cc1 -9.16%
CCc1cccc(NC(=O)Cn2c(=O)n(Cc3ccccc3)c(=O)c3c2c2cc(OC)ccc2n3C)c1 -12.1%
O=C(CSc1nc2c([nH]c3ccccc32)c(=O)n1-c1ccc(F)cc1)N1CCCCC1 -12.6%
CCc1ccc(OCC(=O)N(Cc2ccc(Cl)cc2)C2CCS(=O)(=O)C2)cc1 (configuration not stated) -25.8%
CCOC(=O)c1oc2c(c1C)-c1nn(Cc3ccc(Cl)cc3)cc1CC2 -37.8%
Cc1noc(C)c1S(=O)(=O)N1CCC(C(=O)N2CCN(c3ccccc3)CC2)CC1 -22.8%
COc1ccccc1NC(=O)Cn1nnc(C(=O)NCc2ccc3c(c2)OCO3)c1N -29.6%
CCC(C)NC(=O)Cn1c(=O)cc(-c2ccccc2)c2c(C)nn(C)c21 (configuration not stated) -17.7%
Cn1c(NCCO)nc2c1c(=O)n(Cc1ccccc1Cl)c(=O)n2C 10.5%
Cc1ccc(N2CC(c3nc4ccccc4n3CCC3CCCCC3)CC2=O)cc1 (configuration not stated) -5.76%
CCOc1ccc(C(CC(=O)O)N2Cc3ccccc3C2=O)cc1OC (configuration not stated) 1.5%
COc1ccc(C2c3c(oc4ccc(F)cc4c3=O)C(=O)N2Cc2ccc3c(c2)OCO3)cc1 (configuration not stated) -11%
N#C/C(=C\c1ccccc1)c1nc(-c2cc3cc(Br)ccc3oc2=O)cs1 5.62%
Cc1cccc(N(C)C(=O)c2cc(S(=O)(=O)N3CCCC3)cn2C)c1 -10.7%
CCc1ccc(CNCc2c(C(=O)O)n(Cc3cccc(F)c3)c3cc(OC)ccc23)cc1 -44.4%
COC(=O)c1ccccc1NC(=O)NCCc1c(C)nn(C)c1C -1.99%
COc1cccc(N2CCN(S(=O)(=O)c3ccc4[nH]c5c(c4c3)CCCC5)CC2)c1 -30.5%
O=C(Nc1ccccc1Br)C1CCCN(S(=O)(=O)c2cccc3nsnc23)C1 (configuration not stated) -18%
CCOC(=O)c1cccc(Nc2c3c(nc4ccccc24)CCC3)c1 -39.1%
O=C1CC(c2ccccc2)Cc2[nH]c(=O)c(C(=O)Nc3cccc(F)c3)cc21 (configuration not stated) -25.7%
O=C(NCCS(=O)(=O)N1CCN(c2ccccc2)CC1)C(c1ccccc1)c1ccccc1 -25.3%
CCc1ccccc1N(C)C(=O)Cn1cnc2sc(C)c(S(=O)(=O)N3CCN(c4ncccn4)CC3)c2c1=O -11.1%
COc1ccc(NC(=O)Cn2c(=O)oc3cc(S(=O)(=O)N4CCC(C)CC4)ccc32)c(OC)c1 -91.4%
CCCS(=O)(=O)c1c(Nc2ccccc2C)sc(C(=O)c2ccccc2)c1N -38.5%
Cc1ccc(NS(=O)(=O)c2cc(Br)cc3c2N(C(=O)C2CC2)CC3)cc1C -61.8%
CCOc1ccccc1CNC(=O)CCn1ccc2cc(S(=O)(=O)N3CCC(C)CC3)ccc21 -14.6%
O=C(CCCN1C(=O)C(c2ccccc2)Oc2cccnc21)Nc1ccc(Br)cc1F (configuration not stated) -18.9%
COc1ccc2c(CNCCc3cccs3)c(C(=O)O)n(Cc3ccccc3)c2c1 -20.1%
COc1ccc(-c2nc(SCC(=O)NCCc3ccc(OC)c(OC)c3)n[nH]2)cc1 -12.6%
CCOc1ccc(CCNC(=O)c2cc3c(=O)[nH]c4ccc(C)cc4c3s2)cc1OCC -15.1%
Cc1ccc(Cl)cc1NC(=O)C1CCC(CNS(=O)(=O)c2cccc3nsnc23)CC1 (configuration not stated) -3.62%
CC(=O)N(Cc1cccnc1)c1nc2c(C)c(C)ccc2s1 -8.93%
O=Cc1ccc(O)c(O)c1O -1.97%
Cc1nnc(C(=O)NC(C)(C)c2nc(C(=O)NCc3ccc(F)cc3)c(O)c(=O)n2C)o1
COc1cccc(Oc2nc3c(c(=O)n(Cc4ccccc4F)c(=O)n3C)n2C)c1 29.2% [at 11.5 µM, percent change from vehicle, -100% = no light]
COc1cc2[nH]c(=O)n(CCCCCC(=O)N3CCN(c4cccc(C(F)(F)F)c4)CC3)c(=O)c2cc1OC -24.7%
COc1cccc(N2CCN(C(=O)c3c(C)oc4ncnc(N5CCOCC5)c34)CC2)c1 -6.57%
Cc1c(C(=O)N(C)C)sc2c1c(=O)n(-c1ccc(Cl)c(Cl)c1)c(=O)n2CC(=O)Nc1cccc(C(F)(F)F)c1 -1.82%
CC(C)c1ccc(NC(=O)CN(C)S(=O)(=O)c2ccc3c(c2)c(=O)n(C)c(=O)n3C)cc1 -23.2%
CCn1c(=O)n(CC)c2cc(N3CCCCC3)c(NC(=O)Nc3ccccc3Cl)cc21 -25.5%
CCOC(=O)Cc1ccc(NC(=O)NCc2ccc3c(c2)CCN3C(=O)CC)cc1 -20%
O=C(CCS(=O)(=O)c1cc(Br)cc2c1N(C(=O)C1CC1)CC2)Nc1ccc(Br)cc1F -11.1%
COc1ccc(Cc2nc3ccccc3[nH]c2=O)cc1 -21.2%
C=Cc1ccc(Cn2c(C)c(CNCc3cccc(Br)c3)c(C(=O)O)c2C)cc1 -12.4%
C[C@@H]1C[C@H]2[C@@H]3C[C@H](F)C4=CC(=O)C=C[C@]4(C)[C@@]3(F)[C@@H](O)C[C@]2(C)[C@@]1(O)C(=O)CO 2.3%
Cc1cccc(Cn2c(CNS(=O)(=O)c3ccc4c(c3)CCCC4)nc3cccnc32)c1 -25.3%
CCOC(=O)c1c(S(=O)(=O)N2CCCC(C(=O)NCc3ccc(Cl)cc3)C2)c(C)n(C)c1C (configuration not stated) 0%
COc1ccc(F)cc1S(=O)(=O)NCCc1csc2nc(-c3cccc(C)c3)nn12 -12.8%
O=C(c1ccccc1Cl)N1c2ncnn2C2(CCCCC2)[C@@H]2CCCC[C@@H]21 -32.8%
COC(=O)c1ccc(OCC2c3cc(OC)c(OC)cc3CCN2C(=O)COc2ccc(Cl)cc2)cc1 (configuration not stated) 0.789%
Cc1ccc2oc3c(c(=O)c2c1)C(c1ccc(F)cc1)N(Cc1ccc2c(c1)OCO2)C3=O (configuration not stated) -5.69%
CC(=O)c1cccc(NC(=O)c2sc(-n3nc(C)c(Cc4ccc5c(c4)OCO5)c3C)nc2C)c1 -28.3%
COc1ccccc1CCNC(=O)C(=O)NCC(c1ccc2c(c1)OCO2)N1CCOCC1 (configuration not stated) -20.2%
CCOc1ccc(-c2cccc(NS(=O)(=O)c3c(C)cc(C)cc3C)c2)nn1 -22.1%
